# Measurements as given in publication PMC9574860, “Chemical Toolkit for PARK7: Potent, Selective, and High-Throughput” (Journal of Medicinal Chemistry, 2022).
# Among all 7,900 compounds or so, about 400 (5.1%) showed an effect of 50% or more. The list shows a part of the results.
# Target: Parkinson's disease protein 7 (PARK7/DJ1) (human, UniProt Q99497)
# Test: primary screen, percent inhibition; read as competition with a fluorescent probe by fluorescence polarization; higher = more effect of the substance
# Conditions: 100 µM
# How it was run: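 Fluorescence-polarization probe displacement (JYQ-107, 20 nM final, 2 h) after 2 h preincubation of PARK7 (0.2 μM final) with each fragment at 100 μM final. Read-out ex/em 480/520 nm; remaining activity derived from FP signal loss relative to reference controls.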
# Parkinson's disease protein 7 (PARK7/DJ1), sequence (Q99497 whole entry, looked up): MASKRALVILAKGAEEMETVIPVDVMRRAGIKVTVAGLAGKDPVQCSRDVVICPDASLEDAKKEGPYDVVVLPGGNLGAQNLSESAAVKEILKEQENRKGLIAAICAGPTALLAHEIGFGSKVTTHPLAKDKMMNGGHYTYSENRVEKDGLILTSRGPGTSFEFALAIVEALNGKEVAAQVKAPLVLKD
row,SMILES,Inhibition % [%]
1,Cc1cccc(OCCNC(=O)n2ccnc2)c1,92.6
2,N#CC1(NC(=O)CCl)CCCCC1,21.5
3,N#Cc1ncn(CC(=O)Nc2cc(F)ccc2F)n1,11.5
4,C=CC(=O)NCc1nc2c(s1)COCC2,5.36
5,C=CC(=O)N1CCC(C(=O)N(C)c2ccccc2)C1 (stereo not shown),9.62
6,N#Cc1c(CN2C(=O)CCC2=O)cn2ccccc12,11.1
7,CSc1ccc(CN(C)C(=O)CCl)cc1,14.4
8,O=C(Nc1ccccc1)NC1CN(c2ccccc2)C1=O (stereo not shown),5.74
9,O=C(N[C@H]1c2ccccc2C[C@H]1O)c1cccnc1S,32.2
10,Cl.O=C(CCl)N1CCN(Cc2ccsc2)CC1,7.84
11,CNC(=O)c1ccc(B2OC(C)(C)C(C)(C)O2)c(Cl)c1,7.89
12,CCCc1nnc(NS(=O)(=O)c2cccc(S(=O)(=O)F)c2)o1,98.8
13,Cc1ccc(C=C(C#N)C(N)=O)o1,7.03
14,C=CC(=O)N1CCSC(CC)(CC)C1,13.1
15,O=C(O)C=CC(=O)Nc1ccc2[nH]ncc2c1,77.7
16,C=CC(=O)N1CCCCC(SCC)C1 (stereo not shown),10.8
17,C=CC(=O)N1CCCN(c2ccccn2)CC1,12.3
18,COC(Cc1cccc(F)c1)OC,15.9
19,O=C(Nc1ccc(Cl)cc1)N1CCCCC1C1OCCO1 (stereo not shown),5.3
20,Cc1cc(B2OC(C)(C)C(C)(C)O2)sn1,0.986
21,C=CC(=O)NC(C)Cc1cc(C)nn1-c1ccccc1 (stereo not shown),6.26
22,Cc1ccnc(C#N)c1C,5.08
23,Cc1c(C#N)c(NC(=O)CCl)n(C2CCCC2)c1C,4.13
24,C=CC(=O)NC1(C(=O)N2CCN(C)CC2)CCCC1,5.2
25,C=CC(=O)N1CCn2c(Cc3cccc(F)c3)nnc2C1,10.9
26,O=C1NC(C2CCCO2)C12CCC2 (stereo not shown),-2.83

row,SMILES,Inhibition % [%]
1,C=CC(=O)N1CCCN(C)c2cc(F)ccc21,12.5
2,CCOc1cnc(C#N)cn1,1.65
3,c1ccc(COCC[C@H]2CO2)cc1,17.1
4,C=CC(=O)N(C)Cc1nccn1Cc1ccccc1.O=C(O)C(F)(F)F,-4.78
5,NCCCC1(C2OCCO2)CCOCC1,12.3
6,Cc1ccc(S(=O)(=O)n2cccn2)cc1C,10.3
7,CC(NC(=O)CCl)c1ccc(Cl)cc1 (stereo not shown),6.77
8,CS(=O)(=O)OCC1CCCCO1 (stereo not shown),12.7
9,CCc1noc(CC)c1CNCc1ccccc1B(O)O,2.29
10,CNC1CCCN(C(=O)C=Cc2cccnc2)C1 (stereo not shown),4.11
11,Cn1nnc2cc(CN3CCC(B(O)O)C3)ccc21 (stereo not shown),16
12,COc1cccc2cc(B3OC(C)(C)C(C)(C)O3)oc12,2.09
13,CN(C)C=C(C#N)c1nc2ccccc2[nH]1,1.92
14,C=CC(=O)NCC1CC(C)OC(C)C1 (stereo not shown),11.1
15,O=C(O)c1ccc(CCCl)cc1,8.12
16,NC(=O)c1ccccc1OCCCl,2.27
17,C=C(Cl)COc1cccc2c1NC(=O)CO2,5.93
18,C=CC(=O)NCC1(C(N)=O)CCCC1,9.87
19,CC1(C)OB(c2cccc(OCCn3ccnc3)c2)OC1(C)C,7.89
20,CN1CCC(C)(CCl)CC1.Cl,3.9
21,CN(C(=O)c1ccc(C#N)[nH]1)c1ccc(F)c(F)c1,2.84
22,N#CCCN(C(=O)CCl)c1ccccc1,14.9
23,COc1cc(S(=O)(=O)n2ccc(C)n2)ccc1F,13.7
24,C1CC(C2OCCO2)CCN1,3.58
25,Cc1nc(C#N)c(NC(=O)CSCC2CCCCO2)o1 (stereo not shown),12.5
26,Cc1ccn(S(=O)(=O)c2ccc(C(C)(C)C)cc2)n1,4.34

row,SMILES,Inhibition % [%]
1,C=CC(=O)N1CCC(n2ccc(C(F)(F)F)n2)CC1,7.61
2,O=C1OCCC12CCCC2,5.08
3,C=CC(=O)N1CCc2c(F)cccc2C1,6.26
4,Cc1cccc(CC2CN(c3nccnc3C#N)C2)c1,8.09
5,Cc1cc(C)nc(S)c1,6.52
6,C=CC(=O)N1CCOCC1c1nnc(C(C)C)o1 (stereo not shown),10
7,O=C(CCl)c1c[nH]c2ccc(F)cc12,3.33
8,C/C(=C/B1OC(C)(C)C(C)(C)O1)c1ccccc1Cl,11.7
9,N#Cc1cc(-n2cccn2)ccn1,29.7
10,C=CC(=O)Nc1cccc2c1CCN(S(C)(=O)=O)C2,3.82
11,N#Cc1ccc2c(n1)CCCC2,7.43
12,N#Cc1ccc(Oc2ccccc2)cn1,4.99
13,Cc1c(Cl)cccc1NC(=O)CNC(=O)CCl,-0.758
14,C=CC(=O)Nc1ccc2c(c1)CCCC(=O)N2,4.19
15,CC1(C)OB(c2sccc2C2CC2)OC1(C)C,1.99
16,CN1CCc2cc(B3OC(C)(C)C(C)(C)O3)ccc21,0.886
17,N#Cc1ccc(NCC2CC(F)(F)C2)cn1,10.7
18,CCc1nc(C)c(C#N)c(S)n1,6.36
19,N#Cc1ncn(CCC(=O)Nc2ccc(Cl)cc2F)n1,7.78
20,C=CC(=O)N1CC(CC(=O)N(C)C)c2cc(Cl)ccc21 (stereo not shown),1.16
21,CC(C)(C)N(Cc1cccc(F)c1)C(=O)CCl,3.94
22,C=CC(=O)N1CCC(=O)Nc2ccccc21,9.57
23,CS(=O)(=O)C(C#N)=Cc1cccc(O)c1,6.68
24,CC(NC(=O)c1cccnc1S)C1CCOCC1 (stereo not shown),6.34
25,CC1CC(N(C)Cc2ccc(F)cc2)C(=O)O1 (stereo not shown),11.5
26,C=CC(=O)N1CCC(n2cc(Cl)cn2)CC1,7.37

row,SMILES,Inhibition % [%]
1,C=CC(=O)N1CCN(c2nncn2C)CC1,12.4
2,C=CC(=O)N1CCOCC1c1ncnn1Cc1ccccc1 (stereo not shown),6.08
3,CC1(C)OB(CC2CNC2)OC1(C)C.O=C(O)C(F)(F)F,3.69
4,CC(Cl)c1nnnn1C (stereo not shown),3.71
5,C=CC(=O)NCc1c(Cl)oc2ccccc12,8.21
6,CSc1ccc(OCC2CO2)cc1 (stereo not shown),8.38
7,C=CC(=O)NC1CCN(c2ccc(C(F)(F)F)cn2)CC1,4.21
8,C=CC(=O)NCC1(C)OCCc2sccc21 (stereo not shown),16.4
9,C=CC(=O)NC1(CCO)CC1,6.37
10,C=CCNC(=O)C(C#N)=Cc1ccc(O)cc1,9.67
11,C=CC(=O)N1CCN(Cc2ccsc2)CC1,12.3
12,Cc1ccc(O)c(C(=O)N2CCC(C3OCCO3)CC2)c1,7.3
13,C=CC(=O)N1CCSC(C)CC1 (stereo not shown),5.41
14,CC1CCN(c2ccc(C#N)nc2)C(C)C1 (stereo not shown),2.82
15,Cn1ccnc1C1NC(=O)C1(C)C (stereo not shown),3.42
16,N#Cc1ccccc1OCC1CO1 (stereo not shown),8.28
17,Cc1c(Br)cncc1B1OC(C)(C)C(C)(C)O1,3.85
18,CN(C)c1ccc(Cl)cc1NC(=O)CCl,1.39
19,C=CC(=O)NCCc1nc2c(C)cccc2o1,9.51
20,Cc1cc(C)cc(OC(=O)N2CCOCC2)c1,6.2
21,O=C(CCl)Nc1cc(Cl)cc(Cl)c1,9.47
22,Cn1cc(C=C(C#N)C(=O)NCc2ccco2)cn1,8.57
23,CN(C)c1ccc(C=C(C#N)C(=O)O)cc1,-0.661
24,O=C1OCCC1N1CCN(c2ccccc2O)CC1 (stereo not shown),5.67
25,N#Cc1nc(NC2CCC(CN)C2)ccc1Cl (stereo not shown),15.8
26,Fc1ccccc1COCC1CO1 (stereo not shown),10.3

row,SMILES,Inhibition % [%]
1,Cc1nc(C#N)c(NCc2ccc(F)cc2)o1,11.5
2,O=C(CN1C(=O)CCC1=O)NCc1ccc(F)cc1,5.18
3,CC1(C)OB(c2cnc(N)c(F)c2)OC1(C)C,8.39
4,CCn1nc(C)c(C(=O)CCl)n1,13.1
5,CNC(=O)C1CCCN(C(=O)C=Cc2ccc(C)nc2)C1 (stereo not shown),4.85
6,Cc1ccoc1C=C(C#N)C(=O)NCCc1ccccc1,0.974
7,Cn1c(=O)c2c(ncn2C2CCOC2=O)n(C)c1=O (stereo not shown),2.57
8,C=CC(=O)N1CN(C)C(=O)C1C (stereo not shown),8.81
9,O=C1CN(C(=O)C=Cc2c(F)cccc2F)CCN1,5.08
10,C=CC(=O)N1CCN(C)C(c2nccn2C)C1 (stereo not shown),15.3
11,C=CC(=O)NCc1cnc(-c2ccccc2)s1,8.62
12,C=CS(=O)(=O)c1ccc(C#N)cc1,6.58
13,N#Cc1c(Cl)nc2ccccn12,5.75
14,C=C(C)Cn1c(-c2ncccn2)noc1=O,14.8
15,C=CC(=O)NCc1cccc(N2CCOCC2)n1,6.85
16,OB(O)c1ccccc1OCc1ccc(F)cc1F,2.02
17,OC1(CC2CO2)CCOCC1 (stereo not shown),13.8
18,CCc1ccc2occ(C(=O)NC3CC(C)OC3=O)c2c1 (stereo not shown),6.86
19,NCCCC1(C2OCCO2)CCCCCC1,9.05
20,COc1nc(C)ccc1C(=O)Nc1cccc(S(=O)(=O)F)c1,11.7
21,O=C(O)c1coc(C(=O)CCl)c1,96.1
22,C=CC(=O)N1CCn2c(C3CCCC3)nnc2C1C (stereo not shown),7.27
23,O=C(c1ccc2c(=O)[nH]c(S)nc2c1)N1CCCOCC1,4.88
